Assay results reported in the supplement of paper PMC8728848.
Some of the results follow.

Columns and labels:
Test in all cases: glycan array binding signal (z-score within array); higher = stronger binding
Conditions in all cases: glycan notation: IUPAC condensed, linker removed
[1] = biological target: Fuc(a1-2)Gal(b1-4)GlcNAc(b1-3)Gal(b1-4)GlcNAc(b1-3)Gal(b1-4)GlcNAc
Summary of the method: (§1)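 Glycan array binding is given as a within-array Z-score, which can be read as non-binding when negative. The arrays, 3228 of them, came from the Consortium for Functional Glycomics database and were retained only where the protein sequence was available. Z-scores were averaged across arrays of the same protein sequence at different concentrations or buffers and across linkers.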

[2] = biological target: Fuc(a1-2)Gal(b1-4)GlcNAc(b1-3)GalNAc
Summary of the method: as §1

[3] = biological target: Fuc(a1-2)Gal(b1-4)GlcNAc(b1-3)[Fuc(a1-2)Gal(b1-4)GlcNAc(b1-6)]GalNAc
Summary of the method: as §1

[4] = biological target: Fuc(a1-2)Gal(b1-4)GlcNAc(b1-3)[Fuc(a1-3)[Gal(b1-4)]GlcNAc(b1-6)]Gal(b1-4)Glc
Summary of the method: as §1

[5] = biological target: Fuc(a1-2)Gal(b1-4)GlcNAc(b1-6)GalNAc
Summary of the method: as §1

[6] = biological target: Fuc(a1-2)Gal(b1-4)GlcNAc6S
Summary of the method: as §1

[7] = biological target: Fuc(a1-2)Gal(b1-4)[Fuc(a1-3)]GlcNAc
Summary of the method: as §1

[8] = biological target: Fuc(a1-2)Gal(b1-4)[Fuc(a1-3)]GlcNAc(b1-2)Man(a1-3)[Fuc(a1-2)Gal(b1-4)[Fuc(a1-3)]GlcNAc(b1-2)Man(a1-6)]Man(b1-4)GlcNAc(b1-4)[Fuc(a1-6)]GlcNAc
Summary of the method: as §1

[9] = biological target: Fuc(a1-2)Gal(b1-4)[Fuc(a1-3)]GlcNAc(b1-2)[Fuc(a1-2)Gal(b1-4)[Fuc(a1-3)]GlcNAc(b1-4)]Man(a1-3)[Fuc(a1-2)Gal(b1-4)[Fuc(a1-3)]GlcNAc(b1-2)Man(a1-6)]Man(b1-4)GlcNAc(b1-4)GlcNAc
Summary of the method: as §1

[10] = biological target: Fuc(a1-2)Gal(b1-4)[Fuc(a1-3)]GlcNAc(b1-3)Gal(b1-4)[Fuc(a1-3)]GlcNAc
Summary of the method: as §1

[11] = biological target: Fuc(a1-2)Gal(b1-4)[Fuc(a1-3)]GlcNAc(b1-3)Gal(b1-4)[Fuc(a1-3)]GlcNAc(b1-3)Gal(b1-4)[Fuc(a1-3)]GlcNAc
Summary of the method: as §1

[12] = biological target: Fuc(a1-2)Gal(b1-4)[Fuc(a1-3)]GlcNAc(b1-3)GalNAc
Summary of the method: as §1

[13] = biological target: Fuc(a1-2)Gal(b1-4)[Fuc(a1-3)]GlcNAc(b1-3)[Neu5Ac(a2-6)Gal(b1-4)GlcNAc(b1-6)]Gal(b1-4)Glc
Summary of the method: as §1

[14] = biological target: Fuc(a1-2)Gal3S(b1-4)GlcNAc
Summary of the method: as §1

[15] = biological target: Fuc(a1-2)Gal6S(b1-3)GlcNAc
Summary of the method: as §1

[16] = biological target: Fuc(a1-2)Gal6S(b1-3)GlcNAc6S
Summary of the method: as §1

Fuc(a1-2)Gal6S(b1-4)Glc = biological target: Fuc(a1-2)Gal6S(b1-4)Glc
Summary of the method: as §1

[17] = biological target: Fuc(a1-2)Gal6S(b1-4)Glc6S
Summary of the method: as §1

Fuc(a1-2)[Gal(a1-3)]Gal = biological target: Fuc(a1-2)[Gal(a1-3)]Gal
Summary of the method: as §1

[18] = biological target: Fuc(a1-2)[Gal(a1-3)]Gal(b1-3)GalNAc
Summary of the method: as §1

[19] = biological target: Fuc(a1-2)[Gal(a1-3)]Gal(b1-3)GalNAc(b1-3)Gal(a1-4)Gal(b1-4)Glc
Summary of the method: as §1

[20] = biological target: Fuc(a1-2)[Gal(a1-3)]Gal(b1-3)GlcNAc
Summary of the method: as §1

[21] = biological target: Fuc(a1-2)[Gal(a1-3)]Gal(b1-3)GlcNAc(b1-2)Man(a1-3)[Fuc(a1-2)[Gal(a1-3)]Gal(b1-3)GlcNAc(b1-2)Man(a1-6)]Man(b1-4)GlcNAc(b1-4)GlcNAc
Summary of the method: as §1

[22] = biological target: Fuc(a1-2)[Gal(a1-3)]Gal(b1-3)GlcNAc(b1-2)Man(a1-3)[Fuc(a1-2)[Gal(a1-3)]Gal(b1-3)GlcNAc(b1-2)Man(a1-6)]Man(b1-4)GlcNAc(b1-4)[Fuc(a1-6)]GlcNAc
Summary of the method: as §1

[23] = biological target: Fuc(a1-2)[Gal(a1-3)]Gal(b1-3)GlcNAc(b1-3)GalNAc
Summary of the method: as §1

[24] = biological target: Fuc(a1-2)[Gal(a1-3)]Gal(b1-3)GlcNAc(b1-6)GalNAc
Summary of the method: as §1

[25] = biological target: Fuc(a1-2)[Gal(a1-3)]Gal(b1-4)Glc
Summary of the method: as §1

[26] = biological target: Fuc(a1-2)[Gal(a1-3)]Gal(b1-4)GlcNAc
Summary of the method: as §1

[27] = biological target: Fuc(a1-2)[Gal(a1-3)]Gal(b1-4)GlcNAc(b1-2)Man
Summary of the method: as §1

[28] = biological target: Fuc(a1-2)[Gal(a1-3)]Gal(b1-4)GlcNAc(b1-2)Man(a1-3)[Fuc(a1-2)[Gal(a1-3)]Gal(b1-4)GlcNAc(b1-2)Man(a1-6)]Man(b1-4)GlcNAc(b1-4)GlcNAc
Summary of the method: as §1

[29] = biological target: Fuc(a1-2)[Gal(a1-3)]Gal(b1-4)GlcNAc(b1-2)Man(a1-3)[Fuc(a1-2)[Gal(a1-3)]Gal(b1-4)GlcNAc(b1-2)Man(a1-6)]Man(b1-4)GlcNAc(b1-4)[Fuc(a1-6)]GlcNAc
Summary of the method: as §1

[30] = biological target: Fuc(a1-2)[Gal(a1-3)]Gal(b1-4)GlcNAc(b1-3)GalNAc
Summary of the method: as §1

[31] = biological target: Fuc(a1-2)[Gal(a1-3)]Gal(b1-4)GlcNAc(b1-3)[Fuc(a1-2)[Gal(a1-3)]Gal(b1-4)GlcNAc(b1-6)]GalNAc
Summary of the method: as §1

[32] = biological target: Fuc(a1-2)[Gal(a1-3)]Gal(b1-4)GlcNAc(b1-6)GalNAc
Summary of the method: as §1

[33] = biological target: Fuc(a1-2)[Gal(a1-3)]Gal(b1-4)[Fuc(a1-3)]Glc
Summary of the method: as §1

[34] = biological target: Fuc(a1-2)[Gal(a1-3)]Gal(b1-4)[Fuc(a1-3)]GlcNAc
Summary of the method: as §1

[35] = biological target: Fuc(a1-2)[Gal(a1-3)]Gal(b1-4)[Fuc(a1-3)]GlcNAc(b1-3)GalNAc
Summary of the method: as §1

B1: SP15308A-bot-339-19-339 (Bacteroides ovatus) (protein)
chain: ACNNEWEDEQYEQYISFKSPIPAGGEGVTDIYVRYKEDGKVTYRLPIVVSGSTTNTLDREVHIAVDKDTLETLNIERFSIHRPGLWYTALEEDKYDFPKTVHISAGSSVEQLNIDFNLQGIDMLEKWVLPLTIVDDPSYNYKSHPRKNYAKALLRVIPFNNYSGSYTSSAMKVYTYINGKPDTNARTANKRTGYVINDNTVFFYAGLISEDLDKEVREKYKINVHFNEDGTLHMEQGDPTNKMKFELIGTPTYSKTSVMDATRPYLERRYVQIMFEYDFEDFSYGGNGVDVIPIKYKVEGSMTLQRNINTQIPDEDQQIEW
- glycan array binding signal (z-score) [1]: -0.419
- glycan array binding signal (z-score) [2]: 0.02
- glycan array binding signal (z-score) [3]: 0.349
- glycan array binding signal (z-score) [4]: -0.168
- glycan array binding signal (z-score) [5]: -0.072
- glycan array binding signal (z-score) [6]: -0.416
- glycan array binding signal (z-score) [7]: -0.007
- glycan array binding signal (z-score) [8]: 0.494
- glycan array binding signal (z-score) [9]: -0.05
- glycan array binding signal (z-score) [10]: 0.357
- glycan array binding signal (z-score) [11]: -0.231
- glycan array binding signal (z-score) [12]: 0.687
- glycan array binding signal (z-score) [13]: 0.039
- glycan array binding signal (z-score) [14]: 0.29
- glycan array binding signal (z-score) [15]: -0.017
- glycan array binding signal (z-score) [16]: 0.553
- glycan array binding signal (z-score) (Fuc(a1-2)Gal6S(b1-4)Glc): 0.254
- glycan array binding signal (z-score) [17]: 0.025
- glycan array binding signal (z-score) (Fuc(a1-2)[Gal(a1-3)]Gal): -0.093
- glycan array binding signal (z-score) [18]: -0.051
- glycan array binding signal (z-score) [19]: -0.254
- glycan array binding signal (z-score) [20]: -0.034
- glycan array binding signal (z-score) [21]: -0.641
- glycan array binding signal (z-score) [22]: -0.333
- glycan array binding signal (z-score) [23]: -0.457
- glycan array binding signal (z-score) [24]: 0.014
- glycan array binding signal (z-score) [25]: -0.257
- glycan array binding signal (z-score) [26]: -0.423
- glycan array binding signal (z-score) [27]: 0.239
- glycan array binding signal (z-score) [28]: 1.04
- glycan array binding signal (z-score) [29]: -0.253
- glycan array binding signal (z-score) [30]: -0.46
- glycan array binding signal (z-score) [31]: 8.34
- glycan array binding signal (z-score) [32]: -0.001
- glycan array binding signal (z-score) [33]: 0.304
- glycan array binding signal (z-score) [34]: -0.083
- glycan array binding signal (z-score) [35]: -0.571
